{"source": "the antibiotic and cytotoxicity screens of Wong et al. (2023)", "note": "This is one part of the list.", "data": [{"system": "HepG2", "assay": "cytotoxicity call (relative viability < 0.9)", "conditions": "10 µM", "values": [{"smiles": "CC1(C)S[C@@H]2[C@H](NC(=O)C3(N)CCCCC3)C(=O)N2[C@H]1C(=O)O", "cytotoxicity call": "inactive"}, {"smiles": "C[C@@H]1CN([C@@H](C)CO)C(=O)c2cc(NC(=O)Nc3ccc(C(F)(F)F)cc3)ccc2O[C@@H](C)CCCCO[C@@H]1CN(C)C(=O)NC1CCCCC1", "cytotoxicity call": "inactive"}, {"smiles": "C[C@@H]1CCCCO[C@H](CN(C)S(=O)(=O)c2ccccc2)[C@@H](C)CN([C@H](C)CO)C(=O)c2cc(NC(=O)Nc3ccc(F)cc3)ccc2O1", "cytotoxicity call": "inactive"}, {"smiles": "C[C@@H]1CN([C@H](C)CO)S(=O)(=O)c2ccc(-c3cccnc3)cc2O[C@@H]1CN(C)C(=O)NC1CCCC1", "cytotoxicity call": "inactive"}, {"smiles": "C[C@H](CO)N1C[C@H](C)[C@H](CN(C)C(=O)Nc2ccc(F)cc2)Oc2ccc(NC(=O)CCCCCC(=O)Nc3ccccc3N)cc2C1=O", "cytotoxicity call": "inactive"}, {"smiles": "C[C@H](CO)N1C[C@H](C)[C@H](CN(C)S(C)(=O)=O)Oc2ccc(NC(=O)CCCCCC(=O)Nc3ccccc3N)cc2C1=O", "cytotoxicity call": "inactive"}, {"smiles": "C[C@H]1CN([C@@H](C)CO)C(=O)c2cccc(NS(=O)(=O)c3cccs3)c2O[C@H]1CN(C)S(=O)(=O)c1cccs1", "cytotoxicity call": "inactive"}, {"smiles": "COc1ccc(CN(C)C[C@@H]2Oc3c(NC(=O)c4ccc(-c5nccs5)cc4)cccc3C(=O)N([C@H](C)CO)C[C@@H]2C)cc1", "cytotoxicity call": "inactive"}, {"smiles": "O=C(O)CSCC(=O)N1CCCCC1", "cytotoxicity call": "inactive"}, {"smiles": "C[C@@H]1CN([C@@H](C)CO)S(=O)(=O)c2ccc(C#C[C@@H](C)O)cc2O[C@@H]1CN(C)C(=O)C1CCCCC1", "cytotoxicity call": "inactive"}, {"smiles": "O=C(NC[C@@H](O)CO)[C@]1(Cc2ccccc2)N=C(c2ccc(OCCCO)cc2)O[C@@H]1c1ccccc1", "cytotoxicity call": "inactive"}, {"smiles": "C[C@@H]1CCCCO[C@H](CN(C)S(=O)(=O)c2ccccc2)[C@H](C)CN([C@H](C)CO)C(=O)c2cc(NC(=O)Nc3ccccc3)ccc2O1", "cytotoxicity call": "inactive"}, {"smiles": "Cc1noc(C)c1NC(=O)Nc1ccc2c(c1)C(=O)N([C@@H](C)CO)C[C@@H](C)[C@H](CN(C)CC1CCCCC1)OCCCC[C@H](C)O2", "cytotoxicity call": "inactive"}, {"smiles": "C[C@H]1CN([C@@H](C)CO)C(=O)c2c(c3ccccc3n2C)-c2ccccc2CO[C@H]1CN(C)C(=O)CCC(F)(F)F", "cytotoxicity call": "inactive"}, {"smiles": "C[C@H]1CN([C@@H](C)CO)C(=O)Cc2cc(NC(=O)Nc3ccc(F)cc3)ccc2O[C@H]1CN(C)Cc1ccc(Cl)c(Cl)c1", "cytotoxicity call": "active"}, {"smiles": "Cc1noc(C)c1S(=O)(=O)N(C)C[C@H]1OCCCC[C@@H](C)Oc2ccc(NC(=O)Nc3cccc4ccccc34)cc2C(=O)N([C@@H](C)CO)C[C@H]1C", "cytotoxicity call": "inactive"}, {"smiles": "COc1ccc(S(=O)(=O)Nc2ccc3c(c2)C(=O)N([C@@H](C)CO)C[C@@H](C)[C@@H](CN(C)C(=O)CCC(F)(F)F)OCCCC[C@@H](C)O3)cc1", "cytotoxicity call": "inactive"}, {"smiles": "C[C@@H]1CN([C@@H](C)CO)C(=O)c2cccc(NC(=O)c3cnccn3)c2O[C@H]1CN(C)S(=O)(=O)c1ccccc1", "cytotoxicity call": "inactive"}, {"smiles": "C[C@@H]1CCCCO[C@H](CN(C)CC2CC2)[C@@H](C)CN([C@H](C)CO)C(=O)c2cc(NC(=O)Nc3ccccc3)ccc2O1", "cytotoxicity call": "inactive"}, {"smiles": "C[C@H]1CN([C@@H](C)CO)C(=O)c2cc(NS(=O)(=O)c3ccc(Cl)cc3)ccc2O[C@@H]1CN(C)C(=O)Nc1cccc2ccccc12", "cytotoxicity call": "inactive"}, {"smiles": "Cc1noc(C)c1NC(=O)Nc1ccc2c(c1)CC(=O)N([C@@H](C)CO)C[C@H](C)[C@@H](CN(C)Cc1ccc(C(F)(F)F)cc1)O2", "cytotoxicity call": "inactive"}, {"smiles": "C[C@@H]1CCCCO[C@@H](CN(C)C(=O)C2CCCCC2)[C@@H](C)CN([C@@H](C)CO)C(=O)c2cc(NC(=O)Nc3cccc4ccccc34)ccc2O1", "cytotoxicity call": "inactive"}, {"smiles": "C[n+]1c2cc(N)ccc2cc2ccc(N)cc21.[Cl-]", "cytotoxicity call": "active"}, {"smiles": "CC(O)C(=O)O.CCOc1ccc2nc3cc(N)ccc3c(N)c2c1", "cytotoxicity call": "active"}, {"smiles": "C[C@H](CO)N1C[C@H](C)[C@@H](CN(C)S(=O)(=O)c2ccc(Cl)cc2)Oc2ccc(NC(=O)CCCN(C)C)cc2C1=O", "cytotoxicity call": "inactive"}, {"smiles": "CSc1cnc2c(=O)[nH]c(=O)n(C)c2n1", "cytotoxicity call": "inactive"}, {"smiles": "C[C@@H]1CN([C@@H](C)CO)C(=O)c2cc(NC(=O)Nc3ccc(C(F)(F)F)cc3)ccc2O[C@@H]1CN(C)Cc1ccc(Oc2ccccc2)cc1", "cytotoxicity call": "active"}, {"smiles": "O=C(Cn1ccc([N+](=O)[O-])n1)Nc1cccnc1", "cytotoxicity call": "inactive"}, {"smiles": "COc1ccc(NC(=O)N(C)C[C@H]2Oc3ccc(NS(C)(=O)=O)cc3C(=O)N([C@@H](C)CO)C[C@@H]2C)cc1", "cytotoxicity call": "inactive"}, {"smiles": "O=C(Nc1cc(C(F)(F)F)cc(C(F)(F)F)c1)Nc1cnn(-c2ccc([N+](=O)[O-])cc2)c1C(F)(F)F", "cytotoxicity call": "active"}]}]}
